# Test results reported in paper PMC6212790.
# The list shows a part of the results. At the low end of the ranking the order means little.
# Molecular target: T1, GST-Rok-C97-191 (UniProt O34857)
# T1 sequence: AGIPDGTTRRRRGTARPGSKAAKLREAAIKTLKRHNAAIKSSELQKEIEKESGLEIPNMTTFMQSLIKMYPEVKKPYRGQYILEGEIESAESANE
# Assay: protein binding microarray;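 further: rank score from −0.5 (least bound) to 0.5 (best bound)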
# Details: Rok is a gene silencer of Bacillus subtilis; high values mean tight binding; most listed sequences are background and not binding sites; double strand, one strand shown
row,Sequence,binding signal [E-score]
1,GAAAGTGA,0.125
2,CGTGCGTC,-0.0938
3,AAACGCGA,-0.156
4,AACCCAGT,0.0667
5,GACAGGTA,0.0835
6,AATGTTGA,-0.106
7,CGCTACGC,-0.103
8,CTGAATAC,0.101
9,GCGGAGAA,-0.133
10,AGCAAAAG,-0.137
11,AGCTTATA,0.215
12,CCGCGCCG,-0.245
13,AAACGAGT,0.00967
14,ACCATTCG,0.00667
15,TAGCAATA,0.166
16,ACGCAGCA,-0.167
17,CCGTCAGA,-0.151
18,AATAAGGC,0.113
19,CCCCCTCG,-0.425
20,CCGGGGTA,-0.0747
21,CAAGAAAC,0.224
22,ACCGGAGG,-0.0402
23,ACAGATGG,0.00706
24,ACTCCTTG,-0.133
25,CAACCGGC,-0.118

row,Sequence,binding signal [E-score]
1,ACCAGTAA,-0.118
2,AGCTTCTC,0.00428
3,CCTGGGTA,0.0135
4,GGCACCCC,-0.363
5,ATACCTGC,0.212
6,GGTCACCA,-0.176
7,TGTCTCAA,-0.0115
8,ACCACTTA,0.228
9,ATATGGGG,0.0207
10,AATGCTTA,0.084
11,GGCCCACA,-0.15
12,CACTACGC,-0.0311
13,CGCTCTAG,-0.143
14,GATGTCGA,0.0109
15,AGACGCGC,-0.0811
16,CTTTATTC,-0.0247
17,CGTCCTTC,-0.169
18,CAGCCAAG,-0.197
19,CACCAAGA,0.0142
20,AACCCTGG,-0.132
21,CCTACTAA,0.101
22,CACCCCCG,-0.18
23,CCAACGGC,-0.264
24,GCGCAATA,0.0439
25,AGCTCCAC,0.0579

row,Sequence,binding signal [E-score]
1,GCTTAAAC,-0.0162
2,AAACTCCG,0.115
3,ATACACTC,0.135
4,CGGGTGAG,-0.159
5,CCGGTAGA,0.112
6,ACGTCAGT,-0.175
7,CATGGCCC,-0.222
8,CATTTCAG,-0.0928
9,AAGTGGAG,-0.272
10,AAAGTCGA,-0.0221
11,TCGCTGAA,-0.142
12,AGAAGCGC,0.0435
13,AGGTTTAC,0.0337
14,AGGAAGGG,-0.174
15,ACGAGGGC,-0.296
16,AATCTTCG,0.0127
17,AGTGGGGA,-0.292
18,CATCACAG,-0.0211
19,AGTAGATG,0.29
20,CACGAAGC,-0.104
21,CTTGGGTA,0.0227
22,AATATACT,0.367
23,CGTTATGC,-0.0427
24,GTCCACTA,0.00191
25,CTTTTTGC,-0.0956

row,Sequence,binding signal [E-score]
1,CTTCAGAC,-0.188
2,TAGGTCAA,0.0924
3,GGATTAAA,0.0951
4,TCCTGCGA,-0.149
5,AAGGGCGC,-0.216
6,ACGAGGTG,-0.0517
7,ACTACGTC,0.107
8,AACAAGCT,-0.105
9,CCACAAGG,-0.265
10,TAAGAACA,0.0838
11,ATGTCCAC,-0.0386
12,AAGAGACG,-0.0857
13,AGCATTCC,0.0745
14,CTGTCAAG,-0.11
15,ATTAAAGG,-0.155
16,ATCGCCGA,-0.089
17,AGGGTTCG,-0.182
18,ATTGCGGG,-0.154
19,AACAAGGA,-0.0469
20,ATCTCGGG,0.0948
21,ATCGCGTC,-0.062
22,CCAGCAAG,0.0935
23,GGTTCTAA,-0.0779
24,ACAGCTTG,-0.0952
25,AAGCTTGC,-0.0667

row,Sequence,binding signal [E-score]
1,AGAAGGGA,-0.178
2,ATCACGTG,0.203
3,CGGGTGCC,-0.198
4,GGCCCTAA,-0.21
5,ATGCTAAC,0.0463
6,ACGCTGCT,-0.192
7,ACGTAAGA,0.171
8,AAGGCTGT,-0.191
9,ACACGAAA,0.0148
10,ACCAACGA,-0.0442
11,CGGCAGAC,-0.0726
12,GGCTAGCA,0.0134
13,CGAGACCC,0.0527
14,CGGGATGA,-0.0452
15,TGGCTACA,-0.194
16,CGTGATTA,0.0283
17,CGAGGGCG,-0.211
18,AGCGTATG,-0.0372
19,ACTAATCT,0.219
20,AGCCAGTG,-0.277
21,AGACTCGA,-0.0683
22,GGCAAGCA,-0.204
23,GGTCGGAC,-0.173
24,ATAAGGGG,-0.198
25,CCCTAGTA,0.126

row,Sequence,binding signal [E-score]
1,CTGCTTAC,0.115
2,CCGTAGCA,0.075
3,AGTCAATG,-0.121
4,CATAATTA,0.2
5,ATTCATAA,0.3
6,AGAGTACA,0.0945
7,AAAACCTC,0.00635
8,GACCGCCC,-0.194
9,CGAGGGCC,-0.257
10,GGGAAAAA,0.0895
11,TTGAACAA,0.0664
12,ACCCACAA,0.0446
13,AGACTCAT,-0.158
14,CTAATGAG,-0.166
15,GCGGCGAC,-0.316
16,GGGGCTAC,-0.217
17,AAATCGTT,0.0574
18,ACGATGAC,-0.181
19,CGACGACG,-0.0748
20,TACGGCTA,0.00794
21,CGGTGCAC,-0.289
22,GTAGCTAC,0.428
23,AAGCTCCA,-0.0852
24,CTTACACA,-0.000989
25,AGGTTCTA,0.118

row,Sequence,binding signal [E-score]
1,ACCCTTCG,-0.18
2,CGACCACC,-0.152
3,GCGTTTGA,-0.0325
4,GATAGCGA,0.0913
5,CCCGGCGA,-0.168
6,TACAAGGA,0.0478
7,AATATCGA,0.164
8,ACCGGCCC,-0.158
9,CATCCCTC,-0.221
10,CATCGTGG,-0.184
11,GAACGACA,0.0828
12,CTCTTTCA,-0.118
13,CGCCCGGC,-0.331
14,GAGCGAGA,-0.075
15,ATCTGTCA,-0.24
16,AGGTAGAC,0.093
17,GCTAGATA,0.288
18,AACCGATC,0.0855
19,TCGCGTCA,-0.108
20,ACTCTAAT,0.184
21,CGACGGTA,0.0893
22,CTATACCC,0.0148
